Screen size: about 48,000 compounds; about 450 (0.94%) were called active. Not shown: some 19% with an inconclusive outcome. Calls follow the shape of the dose curve; as a rule, active = well fitted inhibition curve with a large enough effect; inconclusive = small, poorly fitted or top-dose-only effect; inactive = no such curve, though single readings can be large or run the other way. The list shows a part of the results.

The assay in a line: Primary qHTS for Identification of Small Molecule Inhibitors of Huntingtin Promoter Activity. Also: nearly all actives have a fitted effect of over 50% in size. As to conditions: HEK293 HTT promoter firefly luciferase reporter (activity 0% = vehicle and -100% = no light), 24 h; activity change, negative = inhibition: at the top concentration. From the text: Assay Provider: Russell L. Margolis M.D.
Department Neurology, Johns Hopkins University School of Medicine, Baltimore, MD
Huntington's Disease (HD) is a neurodegenerative disorder caused by a CAG repeat expansion in exon 1 of huntingtin (HTT). While there are currently no disease-modifying treatments for HD, recent efforts have focused on development of nucleotide-based therapeutics to lower HTT expression. As an alternative to siRNA or oligonucleotide methods, we hypothesized that suppression of HTT expression might be accomplished by small molecules that either (1) directly decrease HTT expression by suppressing HTT promoter activity or (2) indirectly decrease HTT expression by increasing the promoter activity of HTT-AS, the gene antisense to HTT that appears to inhibit expression of HTT.
We developed and employed a high throughput screen for modifiers of HTT and HTT-AS promoter activity using luminescent reporter HEK293 cells; of the 52,041 compounds tested, we identified 898 replicable hits. We used a rigorous stepwise approach to assess compound toxicity and the capacity of the compounds to specifically lower huntingtin protein in 5 different cell lines, including HEK293 cells, HD lymphoblastoid cells, mouse primary neurons, HD iPSCs differentiated into cortical-like neurons, and HD hESCs. We found no compounds which were able to lower huntingtin without lowering cell viability in all assays, though the potential efficacy of a few compounds at non-toxic doses could not be excluded.
SEQUENCE No. (1, 2, 3, etc.); […] (e.g., Cells, Incubation, Reagent, etc.); VALUE and DESCRIPTION.
1; Reagent; 4 uL; 2,500 Hek293 luciferase reporter cells per wells
3; Compound; 23 nL; Control inhibitor / compound library
5; Reagent; 2.5 uL; Firefly Luc reagent; Dual-Glo Luciferase Reporter Assay System (Promega)
6; Time; 10 min; room temperature incubation
7; Detection; Luminescence; FLuc
NOTES (numbers refer to sequence above)
1; High-throughput screening, measuring luminescence from a Hek293 luciferase reporter, was performed in 1,536 well white-walled tissue-culture treated plates. 2,500 cells were plated in 4 µL of Opti-MEM per well using a Multidrop Combi Reagent Dispenser (ThermoFisher).
2; Assay plates were cultured for 24 hours.
3; Control inhibitor (PTC124; final concentration of 50 uM) and compound library (at final concentrations of 460 nM - 57.5 uM) were added to the assay plate using the Kalypsis Pintool Robotic System equipped with 1536 pinheads.
4; Cells were then incubated for 24 hours at 37 degrees C prior to luminescence measurements.
5; In all cases, luminescence was measured using the Dual-Glo Luciferase Reporter Assay System (Promega) following the manufacturer's instructions.
6; Room temperature incubation.
7; Luminescence signal was obtained using the PerkinElmer ViewLux plate reader. Results were normalized to vehicle control (0% activity) and zero RLU (-100% activity).
Take `C[C@]12Cc3nonc3C[C@@H]1CC[C@@H]1[C@@H]2CC[C@@]2(C)[C@H]1CC[C@]2(C)O`: the “activity change, negative = inhibition” value was inactive: -27.4%. Turning to `C=C1CC[C@@]2(O)[C@H]3Cc4ccc(O)c5c4[C@@]2(CCN3CC2CC2)[C@H]1O5`, the “activity change, negative = inhibition” value was inactive: -6.16%. On to `O=C(CCCN1CCC2(CC1)C(=O)NCN2c1ccccc1)c1ccc(F)cc1`, for which the “activity change, negative = inhibition” value is inactive: 7.18%. For the compound `O=c1[nH]oc2c1CCNC2`, the “activity change, negative = inhibition” value is inactive: 12.8%.

Regarding `CCOC(C(=O)OCCN(C)C)(c1ccccc1)c1ccccc1`, the “activity change, negative = inhibition” value is inactive: -6.69%. As to `CN1[C@@H]2CC[C@H]1CC(OC(=O)c1cc(Cl)cc(Cl)c1)C2` (some centres not stated), the “activity change, negative = inhibition” value is inactive: -9.19%.

Take `CCn1c(CN2CCN(C)CC2)nc2ccccc21`: the “activity change, negative = inhibition” value is inactive: -13.3%. As to `CC(=O)C1CCOC1=O` (configuration not stated), the “activity change, negative = inhibition” value is inactive: 0.304%. Consider `O=C(c1ccc2c(c1)N(Cc1c(F)cccc1Cl)C(=O)c1ccccc1S2)N1CCC2(CC1)OCCO2`, for which the “activity change, negative = inhibition” value is inactive: -11.9%.

In the case of `C[C@H]1O[C@@H](O[C@H]2[C@@H](O)C[C@H](O[C@H]3[C@@H](O)C[C@H](O[C@H]4CC[C@@]5(C)[C@H](CC[C@@H]6[C@@H]5CC[C@]5(C)[C@@H](C7=CC(=O)OC7)CC[C@]65O)C4)O[C@@H]3C)O[C@@H]2C)C[C@H](O)[C@@H]1O`, the “activity change, negative = inhibition” value was inactive: -38.6%. Under `CCOc1ccc(CN2C(=O)c3ccccc3Sc3ccc(C(=O)N4CCC5(CC4)OCCO5)cc32)cc1` stands inactive: -26.5%; under `Cc1c(C(c2ccc(O)cc2)c2c(O)c3ccccc3oc2=O)c(=O)n(-c2ccccc2)n1C` (configuration not stated), inactive: -6.56%. Under `Cc1ccc(-n2c(/C=C/c3cccc(C(F)(F)F)c3)nc3ccccc3c2=O)cc1` stands inactive: -29.8%; under `NC(=O)c1ccc(NC(=O)c2cccn(Cc3ccccc3)c2=O)cc1`, inactive: -7.57%; under `CCC1(CCC(C)C)C(=O)NC(=O)NC1=O`, inactive: -13% [at 116 µM]. Take `O=c1c2ccccc2nc(/C=C\c2cccc(Br)c2)n1-c1ccc(O)cc1`: the “activity change, negative = inhibition” value was inactive: -21.4%. With `CCC1(C2=NCCN2)Cc2ccccc2O1` (configuration not stated), the “activity change, negative = inhibition” value is inactive: 10.7%. Regarding `CCSc1nnc(NC(=O)c2cccn(Cc3ccc(Cl)cc3)c2=O)s1`, the “activity change, negative = inhibition” value is inactive: -6.05%. In the case of `CC[C@@H](CO)NC(=O)[C@@H]1C=C2c3cccc4[nH]cc(c34)C[C@H]2N(C)C1`, the “activity change, negative = inhibition” value is inactive: 1.68%. Under `Cc1ccc2scc(N3CCN(C)CC3)c(=O)c2c1` stands inactive: 53.1%; under `Cc1ccc(-n2c(/C=C/c3ccccc3)nc3ccccc3c2=O)cc1C`, inactive: -22.3%.

Consider `CCOC(=O)Nc1ccc(NCc2ccc(F)cc2)cc1N`, for which the “activity change, negative = inhibition” value is inactive: -8.16%.

Turning to `C[C@H](N)C(=O)c1ccccc1`, the “activity change, negative = inhibition” value is inactive: -2.65% [at 116 µM].

Regarding `Nc1ccccc1C(=O)OCC(O)CO` (configuration not stated), the “activity change, negative = inhibition” value was inactive: 13.1%. Under `COc1cc2cc(c1Cl)N(C)C(=O)C[C@H](OC(=O)C(C)C)[C@]1(C)O[C@H]1[C@H](C)[C@@H]1C[C@@](O)(NC(=O)O1)[C@H](OC)C=CC=C(C)C2` stands inactive: -26.4%. The result for `O=C(O)c1nn(Cc2ccc(Cl)cc2Cl)c2ccccc12` reads “inactive”; that for `O=C(O)C(Cl)Cl`, inactive: 6%. For `CN(C)[C@@H]1C(=O)C(C(N)=O)=C(O)[C@@]2(O)C(=O)C3=C(O)c4c(O)cccc4[C@@](C)(O)[C@H]3C[C@@H]12`, the activity change, negative = inhibition result is “inactive”. Turning to `Cc1ccccc1Cn1cccc(C(=O)Nc2cc(Cl)ccc2C#N)c1=O`, the “activity change, negative = inhibition” value is inactive: -1.12%. Under `CC(NC(C)(C)C)C(=O)c1cccc(Cl)c1` (configuration not stated) stands “inactive”; under `CCOc1ccc2nc(NC(=O)c3cccn(Cc4ccccc4C)c3=O)sc2c1`, inactive: -13.1%.

With `CCC(=O)N1CC(=O)Nc2ccc(C)cc2C1c1ccc(F)cc1` (configuration not stated), the “activity change, negative = inhibition” value was inactive: -4.19%. The result for `NCc1cccnc1` reads inactive: -1.64%.

Regarding `Cc1cc(NC(=O)c2cccn(Cc3cccc([N+](=O)[O-])c3)c2=O)no1`, the “activity change, negative = inhibition” value was inactive: -7.99%. As for `CC(C)=C[C@@H]1[C@@H](C(=O)OCc2coc(Cc3ccccc3)c2)C1(C)C`, the “activity change, negative = inhibition” value is inactive: 8.37%. The result for `CCC(CC)(CNC(=O)CCCO)c1cccc(OC)c1` reads inactive: -4.69%; that for `CCCN(CCC)CCc1c[nH]c2ccccc12`, inactive: -6.61% [at 116 µM]. In the case of `CN1CC[C@]23c4c5ccc(O)c4O[C@H]2[C@@H](O)C=C[C@H]3[C@H]1C5`, the “activity change, negative = inhibition” value is inactive: -6.72% [at 116 µM]. As to `O=[N+]([O-])c1cc([N+](=O)[O-])c2ccccc2c1`, the “activity change, negative = inhibition” value is inactive: 14.8% [at 116 µM].

For the compound `O=C(Nc1ccc2c(c1)OCO2)c1cccn(Cc2ccc(F)cc2)c1=O`, the “activity change, negative = inhibition” value is inactive: -23.9%. For `NCC(CC(=O)O)c1ccc(Cl)cc1` (configuration not stated), the activity change, negative = inhibition was inactive: -2.51% [at 0.739 µM].

Consider `O=C1OC(c2ccc(O)c(S(=O)(=O)O)c2)(c2ccc(O)c(S(=O)(=O)O)c2)c2c(Br)c(Br)c(Br)c(Br)c21`, for which the “activity change, negative = inhibition” value is inactive: -4.95%. Under `O=c1cccc2n1CC1CNC[C@H]2C1` stands inactive: 192%; under `CCOC(=O)CC(SP(=S)(OC)OC)C(=O)OCC` (configuration not stated), “inactive”; under `NC(=O)c1cc([N+](=O)[O-])cc([N+](=O)[O-])c1`, inactive: 4.05%. The result for `COc1ccc(-c2nn3c(=O)cc(CN4CCN(C(=O)COc5ccc(F)cc5)CC4)nc3s2)cc1` reads inactive: -21.5%; that for `O=C1CC[C@@]2(O)[C@H]3Cc4ccc(O)c5c4[C@@]2(CCN3CC2CC2)[C@H]1O5`, “inactive”; that for `CC(=O)OC1(c2ccccc2)CCN(CCc2ccccc2)CC1`, inactive: -22.1% [at 116 µM]. The result for `CCN(CC)CCc1c[nH]c2ccccc12` reads inactive: -1.73% [at 222 µM]. Take `COC1CC(=C(c2cccs2)c2cccs2)C[N+](C)(C)C1` (configuration not stated): the “activity change, negative = inhibition” value was inactive: 6.29%. As for `Cc1oc(-c2ccc(Cl)cc2)nc1CN1C(=O)CN=C(c2ccccc2)c2cc(Cl)ccc21`, the “activity change, negative = inhibition” value is inactive: -3.67%. On to `CN1CCN(C(=O)O[C@H]2c3nccnc3C(=O)N2c2ccc(Cl)cn2)CC1`, for which the activity change, negative = inhibition result is “inactive”.
